{
  "source": "PubChem BioAssay (NCATS)",
  "key": {"[1]": {"biological_target": "Rap guanine nucleotide exchange factor 3 (Homo sapiens) (UniProt O95398)", "sequence (O95398 whole entry, looked up)": "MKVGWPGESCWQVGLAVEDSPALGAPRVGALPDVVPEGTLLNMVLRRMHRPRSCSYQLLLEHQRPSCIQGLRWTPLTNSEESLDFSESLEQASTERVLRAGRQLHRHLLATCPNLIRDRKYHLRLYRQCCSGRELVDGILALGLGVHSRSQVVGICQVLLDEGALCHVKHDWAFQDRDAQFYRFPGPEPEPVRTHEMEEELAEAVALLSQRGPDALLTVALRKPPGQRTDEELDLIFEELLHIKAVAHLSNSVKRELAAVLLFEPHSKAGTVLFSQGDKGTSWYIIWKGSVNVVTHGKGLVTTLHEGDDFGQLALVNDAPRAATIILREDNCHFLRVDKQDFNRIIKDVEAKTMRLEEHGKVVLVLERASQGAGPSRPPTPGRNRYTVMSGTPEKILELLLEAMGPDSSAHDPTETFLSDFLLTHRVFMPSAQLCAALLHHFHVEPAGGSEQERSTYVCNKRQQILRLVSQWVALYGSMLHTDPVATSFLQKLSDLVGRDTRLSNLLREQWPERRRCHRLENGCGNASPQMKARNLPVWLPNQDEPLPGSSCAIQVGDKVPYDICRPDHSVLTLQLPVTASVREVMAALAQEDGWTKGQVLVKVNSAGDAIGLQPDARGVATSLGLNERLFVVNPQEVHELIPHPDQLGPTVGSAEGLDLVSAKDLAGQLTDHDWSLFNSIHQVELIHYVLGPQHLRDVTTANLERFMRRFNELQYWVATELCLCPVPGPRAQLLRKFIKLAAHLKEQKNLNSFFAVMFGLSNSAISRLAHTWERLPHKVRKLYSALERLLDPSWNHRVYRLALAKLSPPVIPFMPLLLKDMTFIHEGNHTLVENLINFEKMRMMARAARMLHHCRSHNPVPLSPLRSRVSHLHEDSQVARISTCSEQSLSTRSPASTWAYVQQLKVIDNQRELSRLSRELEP", "test": "Confirmatory qHTS for antagonist of cAMP-regulated guanine nucleotide exchange factor 3 (EPAC1) (AID 1645880); note: nearly all actives have a fitted effect of over 55% in size;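 for activity, negative = inhibition: plate controls were DMSO only for no effect and full effect of the ATA control for full effect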", "conditions": "EPAC1 Rap1B-BODIPY-GDP exchange, fluorescence; activity, negative = inhibition: at 115 µM (top of the series)", "in_short": "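Nucleotide exchange uses 100 nM EPAC1, 250 nM RAP1B-BODIPY-GDP and 50 uM GDP, with compounds in a concentration-titration series. After 5 min at room temperature, fluorescence (480 nm ex/540 nm em) is read every 5 min for 30 min. Data are normalized to control ATA and DMSO.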"}, "[2]": {"biological_target": "Rap guanine nucleotide exchange factor 4 (Homo sapiens) (UniProt Q8WZA2)", "sequence (Q8WZA2 whole entry, looked up)": "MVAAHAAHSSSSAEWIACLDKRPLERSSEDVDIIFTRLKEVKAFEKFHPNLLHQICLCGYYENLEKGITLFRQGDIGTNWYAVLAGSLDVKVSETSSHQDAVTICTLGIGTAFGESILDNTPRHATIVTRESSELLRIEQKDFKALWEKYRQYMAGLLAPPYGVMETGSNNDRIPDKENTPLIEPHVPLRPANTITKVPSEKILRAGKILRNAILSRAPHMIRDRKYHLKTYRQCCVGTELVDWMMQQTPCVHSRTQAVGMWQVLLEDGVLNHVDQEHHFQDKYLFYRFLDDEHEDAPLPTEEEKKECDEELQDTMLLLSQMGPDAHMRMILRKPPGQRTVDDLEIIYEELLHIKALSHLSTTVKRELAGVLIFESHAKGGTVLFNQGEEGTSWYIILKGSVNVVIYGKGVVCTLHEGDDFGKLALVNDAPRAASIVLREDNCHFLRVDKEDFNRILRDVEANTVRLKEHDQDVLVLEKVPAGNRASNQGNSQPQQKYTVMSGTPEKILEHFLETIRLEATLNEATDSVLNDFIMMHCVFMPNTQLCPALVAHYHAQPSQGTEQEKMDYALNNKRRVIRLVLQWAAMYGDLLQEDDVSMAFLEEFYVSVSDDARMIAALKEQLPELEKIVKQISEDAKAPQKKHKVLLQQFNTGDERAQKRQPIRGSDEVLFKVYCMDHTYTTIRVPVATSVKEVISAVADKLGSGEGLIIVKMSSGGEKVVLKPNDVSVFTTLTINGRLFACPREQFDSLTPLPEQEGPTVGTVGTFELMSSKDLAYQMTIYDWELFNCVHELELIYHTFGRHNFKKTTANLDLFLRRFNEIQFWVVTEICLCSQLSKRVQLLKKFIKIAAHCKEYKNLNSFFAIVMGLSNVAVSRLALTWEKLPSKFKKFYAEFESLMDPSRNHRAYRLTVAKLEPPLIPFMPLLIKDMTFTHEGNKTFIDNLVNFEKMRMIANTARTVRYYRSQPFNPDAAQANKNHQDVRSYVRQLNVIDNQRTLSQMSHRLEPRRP", "test": "Confirmatory qHTS for antagonist of cAMP-regulated guanine nucleotide exchange factor 4 (EPAC2) (AID 1645885); note: nearly all actives have a fitted effect of over 25% in size; for activity change, negative = inhibition: % is set by controls: 0 for no effect and ±100 for the full control effect", "conditions": "activity change, negative = inhibition: at 12.7 µM (top of the series) unless noted"}, "[3]": {"biological_target": "Rap guanine nucleotide exchange factor 3 (Homo sapiens) (UniProt O95398)", "test": "Counterscreen qHTS for agonist of cAMP-regulated guanine nucleotide exchange factor 3 (EPAC1) (AID 1645889); note: nearly all actives have a fitted effect of over 40% in size; for activation: % of control where 0% means no effect", "conditions": "EPAC1 Rap1B-BODIPY-GDP exchange, fluorescence; activation: at 154 µM (top of the series) unless noted", "in_short": "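Rap1B-BODIPY-GDP 250 nM + GDP 50 uM; cpds 7-pt, final 9.74 nM–152 uM (activator mode) or from 7.32 nM upwards (inhibitor mode); RT; FI 480/540 nm at 5 and 30 min, then ± cAMP, reread.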"}},
  "note": "The shares of active, inactive and inconclusive entries below differ from those in the screen. Potencies of inconclusive entries are left out as doubtful fits. Activity calls are given as the source filed them. Calls come from the whole dose curve; as a rule, active = well fitted curve in the direction sought with a large enough effect; inconclusive = small, poorly fitted or top-dose-only effect, or another doubt; inactive = no such curve, though single readings can be large; an effect the other way counts as inactive or inconclusive. Potency is the fitted concentration of half-maximal effect; tags give direction and shape of the fitted curve.",
  "data": [
    {"smiles": "CCCn1nc([N+](=O)[O-])c(C(C#N)c2nc3ccccc3o2)c(Cl)c1=O", "note": "(centres undefined)", "values": [
      {"measurement": "Potency", "setting": "[1]", "value": "inconclusive [inhibitor, single point]"},
      {"measurement": "Potency", "setting": "[2]", "value": "active: 37.9 µM"},
      {"measurement": "Potency", "setting": "[3]", "value": "inactive"}
    ]},
    {"smiles": "COC(=O)CC1(C(=O)OC)Oc2ccc(Br)cc2C(=O)N1c1cc(Cl)cc(Cl)c1", "note": "(centres undefined)", "values": [
      {"measurement": "Potency", "setting": "[1]", "value": "inactive"},
      {"measurement": "Potency", "setting": "[2]", "value": "active: 2.13 µM"},
      {"measurement": "Potency", "setting": "[3]", "value": "active: 0.0282 µM"}
    ]},
    {"smiles": "Cc1c(C(=O)N2CCN(c3ncccn3)CC2)oc2c(Cl)cccc12", "values": [
      {"measurement": "Potency", "setting": "[1]", "value": "inconclusive [inhibitor, partial curve, poor fit]"},
      {"measurement": "Potency", "setting": "[2]", "value": "inactive"},
      {"measurement": "Potency", "setting": "[3]", "value": "inactive"}
    ]},
    {"smiles": "COc1ccc(-c2nn3c(-c4cccc(C)c4)nnc3s2)cc1OC", "values": [
      {"measurement": "Potency", "setting": "[1]", "value": "inconclusive [inhibitor, partial curve, poor fit]"},
      {"measurement": "Potency", "setting": "[2]", "value": "inconclusive [inhibitor, single point]"},
      {"measurement": "Potency", "setting": "[3]", "value": "inconclusive [activator, partial curve, poor fit]"}
    ]},
    {"smiles": "Cc1nc2c(OCc3ccc(C(F)(F)F)cc3)cccn2c1N(C)Cc1cccs1", "values": [
      {"measurement": "Potency", "setting": "[1]", "value": "inconclusive [inhibitor, partial curve]"},
      {"measurement": "Potency", "setting": "[2]", "value": "inconclusive [inhibitor, full curve]"},
      {"measurement": "Potency", "setting": "[3]", "value": "inconclusive [activator, partial curve, poor fit]"}
    ]},
    {"smiles": "Cc1ccc(C)c(NC(=O)CN(C)C(=O)c2ccccc2Cc2ccccc2)c1", "values": [
      {"measurement": "Potency", "setting": "[1]", "value": "inconclusive [inhibitor, partial curve]"},
      {"measurement": "Potency", "setting": "[2]", "value": "inconclusive [inhibitor, partial curve]"},
      {"measurement": "Potency", "setting": "[3]", "value": "inconclusive [activator, partial curve, poor fit]"}
    ]},
    {"smiles": "COC(=O)c1c(-c2ccc(OC)cc2)sc2ccc(OC)cc12", "values": [
      {"measurement": "Potency", "setting": "[1]", "value": "inactive"},
      {"measurement": "Potency", "setting": "[2]", "value": "inconclusive [inhibitor, partial curve]"},
      {"measurement": "Potency", "setting": "[3]", "value": "inconclusive [activator, full curve, poor fit]"}
    ]},
    {"smiles": "C=CCn1c(NC(=O)c2ccccc2Cl)c(C#N)c2nc3ccccc3nc21", "values": [
      {"measurement": "Potency", "setting": "[1]", "value": "active: 35.5 µM"},
      {"measurement": "Potency", "setting": "[2]", "value": "active: 3.01 µM"},
      {"measurement": "Potency", "setting": "[3]", "value": "inconclusive [activator, partial curve, poor fit]"}
    ]},
    {"smiles": "C=CC[C@@H](Cc1ccc(F)cc1)C(=O)OC[C@@H]1CCCN1C(=O)[C@@H](CC=C)CC(=O)N(CCO)Cc1ccccc1", "values": [
      {"measurement": "Potency", "setting": "[1]", "value": "inconclusive [inhibitor, partial curve]"},
      {"measurement": "Potency", "setting": "[2]", "value": "inconclusive [inhibitor, partial curve]"},
      {"measurement": "Potency", "setting": "[3]", "value": "inactive"}
    ]},
    {"smiles": "Nc1ccc(Oc2ncccn2)cc1", "values": [
      {"measurement": "Potency", "setting": "[1]", "value": "inactive"},
      {"measurement": "Potency", "setting": "[2]", "value": "inconclusive [inhibitor, single point]"},
      {"measurement": "activation", "setting": "[3]", "value": "inconclusive: 47.2% [activator]"}
    ]},
    {"smiles": "CN(C)CCNC(=O)c1ccc(-c2cn3c(-c4ccc(Oc5ccccc5)cc4)cnc3cn2)cc1", "values": [
      {"measurement": "Potency", "setting": "[1]", "value": "inactive"},
      {"measurement": "Potency", "setting": "[2]", "value": "inconclusive [inhibitor, partial curve]"},
      {"measurement": "activation", "setting": "[3]", "value": "inconclusive: 21.7% [activator]"}
    ]},
    {"smiles": "Cc1ccc(C)n1-c1nn(S(=O)(=O)c2ccccc2)c2cccc(F)c12", "values": [
      {"measurement": "Potency", "setting": "[1]", "value": "inconclusive [inhibitor, partial curve, poor fit]"},
      {"measurement": "Potency", "setting": "[2]", "value": "active: 13.5 µM"},
      {"measurement": "Potency", "setting": "[3]", "value": "inconclusive [activator, partial curve, poor fit]"}
    ]},
    {"smiles": "CCCN(CC(=O)Nc1ccccc1C)C(=O)C1CCN(S(=O)(=O)c2ccccc2C(F)(F)F)CC1", "values": [
      {"measurement": "Potency", "setting": "[1]", "value": "inactive"},
      {"measurement": "Potency", "setting": "[2]", "value": "inactive"},
      {"measurement": "Potency", "setting": "[3]", "value": "inactive"}
    ]},
    {"smiles": "O=C(CSc1nc2c([nH]c3ccccc32)c(=O)n1-c1ccccc1F)Nc1cccc(Cl)c1", "values": [
      {"measurement": "Potency", "setting": "[1]", "value": "inactive"},
      {"measurement": "Potency", "setting": "[2]", "value": "inactive"},
      {"measurement": "Potency", "setting": "[3]", "value": "inactive"}
    ]},
    {"smiles": "CC(=O)NC(c1ccco1)c1cc(Cl)c2ccccc2c1O", "note": "(centres undefined)", "values": [
      {"measurement": "Potency", "setting": "[1]", "value": "inactive"},
      {"measurement": "Potency", "setting": "[2]", "value": "inconclusive [inhibitor, single point]"},
      {"measurement": "Potency", "setting": "[3]", "value": "inconclusive [activator, full curve, poor fit]"}
    ]},
    {"smiles": "Nc1cc(OC(=O)c2cccs2)nn1S(=O)(=O)c1ccc(F)cc1", "values": [
      {"measurement": "Potency", "setting": "[1]", "value": "inconclusive [inhibitor, partial curve]"},
      {"measurement": "Potency", "setting": "[2]", "value": "active: 84.9 µM"},
      {"measurement": "Potency", "setting": "[3]", "value": "inactive"}
    ]},
    {"smiles": "Cc1cccc(Nc2nnc(-c3ccc(N4CCOCC4)c([N+](=O)[O-])c3)c3ccccc23)c1", "values": [
      {"measurement": "Potency", "setting": "[1]", "value": "inconclusive [inhibitor, full curve, poor fit]"},
      {"measurement": "Potency", "setting": "[2]", "value": "inactive"},
      {"measurement": "Potency", "setting": "[3]", "value": "inconclusive [activator, partial curve, poor fit]"}
    ]},
    {"smiles": "COCCN(CCOC)c1nc(-c2ccccc2)nc2ccccc12", "values": [
      {"measurement": "Potency", "setting": "[1]", "value": "inactive"},
      {"measurement": "Potency", "setting": "[2]", "value": "inconclusive [inhibitor, full curve]"},
      {"measurement": "Potency", "setting": "[3]", "value": "inconclusive [activator, full curve, poor fit]"}
    ]}
  ]
}
